Publication PMC4336329 (PLoS ONE, 2015)
Out of some 310,000 compounds screened, about 14,000 (4.5%) showed an effect of 50% or more. The effect is printed as a negative number. Some of the results follow.

target: human ether-à-go-go-related gene (hERG) potassium channel (human, UniProt Q12809); assay: primary screen, population patch clamp on CHO cells stably expressing hERG
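Further: peak tail current of the secondary pulse compared with the same well before compound.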

human ether-à-go-go-related gene (hERG) potassium channel, sequence (Q12809 whole entry, looked up): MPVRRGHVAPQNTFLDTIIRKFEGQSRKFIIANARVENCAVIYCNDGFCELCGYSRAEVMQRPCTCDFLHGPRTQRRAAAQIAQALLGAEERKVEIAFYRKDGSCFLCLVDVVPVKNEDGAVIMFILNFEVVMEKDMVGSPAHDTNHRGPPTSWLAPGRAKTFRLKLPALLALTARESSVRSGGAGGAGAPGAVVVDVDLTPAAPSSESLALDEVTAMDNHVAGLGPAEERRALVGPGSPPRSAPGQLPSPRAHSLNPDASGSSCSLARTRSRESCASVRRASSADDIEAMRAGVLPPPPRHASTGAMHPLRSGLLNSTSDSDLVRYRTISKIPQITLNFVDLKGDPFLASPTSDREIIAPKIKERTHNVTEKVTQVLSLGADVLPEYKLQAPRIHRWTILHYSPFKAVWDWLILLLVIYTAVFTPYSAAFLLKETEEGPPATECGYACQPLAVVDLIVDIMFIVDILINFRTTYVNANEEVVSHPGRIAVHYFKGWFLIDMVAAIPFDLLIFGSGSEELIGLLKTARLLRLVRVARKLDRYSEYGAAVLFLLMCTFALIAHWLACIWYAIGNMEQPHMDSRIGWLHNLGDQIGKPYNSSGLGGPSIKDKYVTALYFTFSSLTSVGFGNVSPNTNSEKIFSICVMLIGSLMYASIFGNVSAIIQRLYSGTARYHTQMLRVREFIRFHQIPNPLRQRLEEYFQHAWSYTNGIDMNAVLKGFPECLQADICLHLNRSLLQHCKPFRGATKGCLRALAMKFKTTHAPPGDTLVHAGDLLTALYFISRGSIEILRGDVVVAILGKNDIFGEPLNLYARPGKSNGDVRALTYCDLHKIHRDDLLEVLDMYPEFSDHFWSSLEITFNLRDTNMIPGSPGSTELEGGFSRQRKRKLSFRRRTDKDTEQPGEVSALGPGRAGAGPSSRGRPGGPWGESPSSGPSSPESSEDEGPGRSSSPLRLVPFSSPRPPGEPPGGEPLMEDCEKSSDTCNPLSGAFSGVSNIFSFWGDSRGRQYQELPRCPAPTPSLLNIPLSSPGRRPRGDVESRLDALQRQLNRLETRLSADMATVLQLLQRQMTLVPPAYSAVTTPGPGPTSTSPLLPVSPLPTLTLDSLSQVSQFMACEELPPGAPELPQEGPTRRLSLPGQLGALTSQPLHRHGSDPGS

SMILES	hERG current change (%, negative = inhibition) at 10uM [%]
CC(C(=O)Nc1ncc([N+](=O)[O-])s1)N1C(=O)c2ccccc2S1(=O)=O (stereo not shown)	-3.37
O=C(CCn1ccnc1)Nc1cc(Cl)ccc1O	14.3
CC1CC(C)CN(CCCNC(=O)C2CCC(=O)N2C2CCCC2)C1 (stereo not shown)	11
CC(=O)N1c2ccc(S(=O)(=O)NCC3CCC(C(=O)Nc4cc(C)ccn4)CC3)cc2CC1C (stereo not shown)	5.06
CC(/C=N/NC(=O)c1cc(-c2cccn2C)n[nH]1)=C\c1ccccc1	-3.38
CCn1c(SCC(=O)NNC(=O)c2ccc(C)cc2)nnc1C(C)C	19.8
Cc1ccc(Cl)cc1N1CCN(C(c2ccc(C#N)cc2)c2nnnn2C2CCCC2)CC1 (stereo not shown)	5.19
CC(O)CSc1nc2c(c(=O)[nH]c(=O)n2C)n1Cc1ccccc1 (stereo not shown)	-41.1
CCN(CC(=O)Nc1c(F)cccc1F)C(=O)C(C)SCc1nc2sc(C)c(C)c2c(=O)[nH]1 (stereo not shown)	-34
Oc1[nH]c2ccc(Br)cc2c1N=Nc1nn[nH]n1	18.4
COC(=O)c1cc(C)nc(N)c1C#N	-5.58
COc1cc(C#N)c(NC(=S)N2CCOCC2)cc1OC	16.2
CCCCCCCNC(=O)C1(CC2CC(c3ccccc3)=NO2)CCNCC1 (stereo not shown)	-58.8
O=C(Nc1ccc2c(c1)OCCO2)c1ccccn1	17
O=C(CCCOc1ccc(Cl)cc1Cl)N/N=C/c1ccccc1O	53.6
CN(C)/C=C(/C(=O)c1ccc(Cl)c(Cl)c1)c1nnnn1-c1ccccc1	9.85
COc1ccc(-c2nc(NC(C)=O)sc2-c2ccc(OC)cc2)cc1	25.4
COc1ccc(C(=O)Nc2ccc(NC(=O)C3CCCCC3)nc2)cc1	27.2
COc1ccc(Cc2nnc(NC(=O)C3CC(=O)N(c4ccc(OC)cc4)C3)s2)cc1 (stereo not shown)	8.2
O=C(O)CCCCC1CCSS1 (stereo not shown)	7.97
COc1ccc(C(=O)Nc2ccc(O)cc2C(=O)O)cc1	19.1
CCN(CC(=O)NC1CCS(=O)(=O)C1)C(=O)C(c1ccccc1)c1ccccc1 (stereo not shown)	-2.13

SMILES	hERG current change (%, negative = inhibition) at 10uM [%]
COC(=O)N/N=C/c1cccc(OCCSc2ccc(Cl)cc2)c1	11.5
O=C(Nc1ccc(OCC(=O)N2CCOCC2)cc1)c1ccccc1Cl	2.36
O=C1NCN(c2ccccc2)C12CCNCC2	3.05
CCCCn1nnc(NC(=O)Cc2ccc(Cl)cc2)n1	-16.6
CCCCOC(=S)NC(=O)c1sc2ccccc2c1Cl	0.519
Cc1cc(C2=NNC(=NCCc3ccccc3)SC2)c(C)n1CC1CCCO1 (stereo not shown)	-40.5
Cl.Oc1cccc(CN2CCCCC2)c1	-1.76
CC(C)(C)c1cc(NCCCn2ccnc2)n2ncc(-c3ccccc3)c2n1	-18
COc1cc(/C=N/NC(=O)CN2CC(c3ccccc3)CC2=O)ccc1OC(=O)N(C)C (stereo not shown)	-4
O=C(Cn1nc(-c2ccccc2)ccc1=O)NCCN1CCN(Cc2ccccc2)CC1	-19.1
Cc1nn(Cc2ccccc2)c(Cl)c1C(=O)OCC#N	-4.65
CC(C)(C)c1ccc(-c2conc2N)cc1	5.58
CCc1ccc(NC(=O)c2cc(S(=O)(=O)N3CCCC3)c[nH]2)cc1	9.7
CCOC(=O)c1c(NC(=O)CN2C(=O)NC3(CCC(CC)CC3)C2=O)sc(C)c1-c1ccc(C)cc1 (stereo not shown)	2.08
CCOc1cc(C(=O)NC(C)Cc2cccs2)cc(OCC)c1OCC (stereo not shown)	7.63
CCCCNC(=O)CS(=O)Cc1nc(-c2cccc(C)c2)oc1C (stereo not shown)	-5.91
CCOCCCNC(=O)C1CCC(CNS(=O)(=O)c2ccc(Cl)cc2)CC1 (stereo not shown)	-12
CCN(C(=O)CSc1nc2ccc([N+](=O)[O-])cc2s1)C1CCS(=O)(=O)C1 (stereo not shown)	-61.8
O=C(Oc1ccc(N2C(=O)C3C4CCC(C4)C3C2=O)cc1)c1ccco1 (stereo not shown)	13.2
COC(=O)C1=C(c2cccc(C#N)c2)C[C@@H]2CC[C@H]1N2C(=O)NCCNC(C)=O	20.3
CCCCCCCN1CCC(=O)N(CCO)CC1	-54.3
O=[N+]([O-])c1ccc(Cl)c(/C=N/N2CCN(c3ccccc3)CC2)c1	7.73

SMILES	hERG current change (%, negative = inhibition) at 10uM [%]
CC(C)CN(C(=O)COC(=O)CCC(=O)c1ccc(Cl)cc1)c1c(N)n(Cc2ccccc2)c(=O)[nH]c1=O	10.4
COc1cccc(NC(=O)[C@H](NC(=O)[C@@H]2Cc3ccccc3CN2)c2ccccc2)c1	-76.4
CCOC(=O)N1CCN(C(=O)/C(=C\c2cccs2)NC(=O)c2cccs2)CC1	-71.8
O=C(c1cncc(Br)c1)N1CCN(c2ccc(N3CCOCC3)nn2)CC1	-2.06
C/C(=N\NC(=O)CN1CCN(Cc2ccccc2)CC1)c1cccs1	-50.9
Nc1nnc(-c2cccc(F)c2)s1	13.7
COC(=O)[C@@]12CCCN1[C@H](c1ccc(-c3ccc(Cl)c(Cl)c3)cc1)[C@H]1C(=O)N(C)C(=O)[C@H]12.O=C(O)C(F)(F)F	-25.5
CN(C)CCCN1C(=O)c2cccc3c(Br)ccc(c23)C1=O	-66.4
COc1ccc(OCC(=O)Nc2cccc(S(=O)(=O)N(C)c3ccccc3)c2)c([N+](=O)[O-])c1	-6.21
CN1CCN(C(=O)CCN2C(=O)/C(=C/c3ccc(F)cc3)SC2=S)CC1	-4.02
O=C(c1nc2ccccn2c1CNCCOc1cccnc1)N1CCOCC1	9.08
O=C1NCCN(Cc2ccoc2)C1CC(=O)N(Cc1ccccc1)CC1CCC1 (stereo not shown)	8.87
O=C(c1ccccc1Oc1ccccc1)N1CCN(c2ccc(F)cc2)CC1	-33.9
O=C(CSc1nc2ncc(Cl)cc2[nH]1)N(Cc1ccccc1)C1CCS(=O)(=O)C1 (stereo not shown)	-2.63
c1ccc(-c2nc3c4ccccc4ccn3c2CN2CCCCC2)cc1	-16
Cc1cc(C)cc(N(CCC#N)C(=O)COC(=O)c2nc3nc(C)cc(C)n3n2)c1	-14.5
O=C(CSc1cn(CCNC(=O)c2ccccc2F)c2ccccc12)NCC1CCCO1 (stereo not shown)	-6.8
COc1ccc2c(c1)CCc1cnc(N)nc1-2	2.76
CCC(C)(C)NC(=O)Cc1ccccc1OC	23
O=C(NCCCNC(=O)c1ccccn1)c1ccc(F)cc1	18.6
Oc1ccccc1N=Nc1nc(-c2ccccc2)c(-c2ccccc2)[nH]1	1.55
Cc1c(C(=O)OC2CCCC2C)[nH]c2c1C(=O)CCC2 (stereo not shown)	-16

SMILES	hERG current change (%, negative = inhibition) at 10uM [%]
Cc1ccc(/C=C/C(=O)Nc2nn[nH]n2)o1	17.7
C=CCC(=O)NC1CCCc2c1cnn2-c1cc(F)cc(F)c1 (stereo not shown)	-75.7
CN(CCc1ccccn1)C(=O)CCC1CCCN(C(=O)c2ccc3c(c2)OCCO3)C1 (stereo not shown)	23.7
Cc1cc(C)c(C)c(S(=O)(=O)N2CCN(C(=O)c3cc(=O)[nH]c4ccccc34)CC2)c1C	-27.5
COc1ccc(C(=O)Nc2c3c(nn2C(C)(C)C)CS(=O)(=O)C3)cc1OC	13.1
N#CC/C(N)=N/Nc1nc2ccccc2nc1Cc1ccccc1	6.93
O=C(NC1CCCC1)c1cccnc1N1CCCCCC1	-3.7
COc1cccc(C(c2c(C)[nH]n(-c3ccccc3)c2=O)c2c(C)[nH]n(-c3ccccc3)c2=O)c1O	-4.28
COc1ccc(NS(=O)(=O)c2cn(C)cn2)cc1Cl	19.3
COc1ccc(-c2cc(C(=O)NCc3cccs3)no2)cc1	7.1
Cc1ccc(C)c(NC(=O)CN(C)C(=O)C2CCN(C(=O)Nc3ccccc3)CC2)c1	-1.27
COCCOC(=O)c1c(C)oc2ccc(OS(C)(=O)=O)cc12	6.36
CC1CCC/C(=C\Nc2ccc(C(=O)O)cc2)C1=O (stereo not shown)	13.2
CCOC(=O)c1nnc(-c2ccccc2)[nH]c1=O	3.44
CCN(CC)C(=O)CSc1nnc(COc2cccc(C)c2)n1C	7.56
CC(=O)Nc1ccc(S(=O)(=O)NCC(=O)OCC(=O)N2CCCc3ccccc32)cc1	4.4
CCOC(=O)CSc1[nH]c2cc(OC)ccc2c1[N+](=O)[O-]	2.4
O=C(CCN1C(=O)/C(=C/c2ccc(F)cc2)SC1=S)NC1C=CS(=O)(=O)C1 (stereo not shown)	-15.2
CCN(CC)S(=O)(=O)c1ccc2[nH]cc(C(=O)NCCc3ccc(OC)c(OC)c3)c(=O)c2c1	15
CCOC(=O)N1CCN(c2ccc(S(=O)(=O)N3CCC(C)CC3)cc2[N+](=O)[O-])CC1	-32.7
COc1cc(CN2CCN(Cc3ccc([N+](=O)[O-])cc3)CC2)c([N+](=O)[O-])cc1OC.O=C(O)C(=O)O	-68.2
Cc1ccc(C)c(N2CCN(C(=O)CCC(=O)Nc3nnc(CC(C)C)s3)CC2)c1	17.2
